These results are taken from the RNAGym collection of RNA variant scans (doi:10.7554/elife.90254).

B1: LINE1-full (parent)
chain: UACGUAGGUGGUUUUCCCCUGAUAGUGCUAAGGGGGCCUGGAAGUUUGGACUGGGCAGAGCUCAACACAGCGUGGCAAAGUGGCUGUGGCUAGACUGCCUCUCUGGAUUCCUCGUCACUCAGCAGGGCAUCUCUGAGAGAAAUGCC

Read counts are not given, so values of variants with three or more changes are uncertain.

In this data set the parent is B1. The data set is described as follows: self-cleavage, relative activity (ratio to wild type); higher = more cleavage; in vitro, sequencing; the parent is a self-cleaving ribozyme.
For U14C U23A U39A A141G, the self-cleavage was determined as 1.6. With U14C U62C A117G the figure was 0; with U14C U73C A79G G126U, 1.23. Then U14C U39G U115C, with 0; and U14C U132C A138U, with 0.62; and U15A A59G A79G A138G, with 0.36. Turning to U15A A43G U52C A77U G97A A117G A138G, the self-cleavage was 0. Then U15A A129G U134G, with 0.

Turning to U14C U102C U143A, the self-cleavage is 1.78. With U14C U47G U115A U134A the figure was 1.51. With U15A U109C G127A the figure was 0.58; with U14C U52A U100C A138G, 1.48. U15C G83A A124C A138G: the self-cleavage was found to be 1.62. With U15C A92G A140G the figure was 0.05; with U14C U112C C120U, 1.77. With U15A U23C U108C A129G U132C the figure was 0. On to U14C U108C U143C, for which the self-cleavage was 1.19. With U15C U20A A78G A79G the figure was 0.91. Consider U15C A69C U102A, for which the self-cleavage turned out to be 0.12. With U14C U26C U132C the figure was 1.1; with U14C U87C A142G, 0.3.

With U14C U39C A50U A94G A140U, the self-cleavage worked out at 0.2.

For the variant U15C G88A C120A, the self-cleavage came to 0.01. Then U15A U20A G35A A42U U45G U96C A121G, with 0; and U15C A31U A138U, with 0.95; and U15C C19A A117G U119A, with 0. With U15A A65G U96C the figure was 0.4; with U15C A30G C90U, 0.31; with U14C U46A U81C A92U A94U, 0.52. Take U14C G53A A57G U85C: the self-cleavage worked out at 0.13. Then U15C G72A G126A, with 1.77; and U14C G49A A79G U85C A94G U119C, with 0.92. With U15C A57G G83A the figure was 0.57.

Regarding U15A A94G A140G, the self-cleavage was determined as 0.62. Then U15C A24G A136G, with 0.84. With U15C G35A A129U the figure was 1.57; with U15C G36A C76U, 1.92. As for U15C A43U A65U U109A U130A A138G, the self-cleavage came to 0.49. With U15C A136U A140G the figure was 1.68. With U14G U62A G135A A136U A141G the figure was 0.11. With U15C A77G U102C A129U U134A U143A, the self-cleavage is 1.67. In the case of U15A U47G A67G, the self-cleavage worked out at 0.78.

Take U14C U115C U134C G144A: the self-cleavage stood at 1.5. Then U14C U39G A77U U115A U130C A141C, with 1.38; and U14C G60U U100C G127A, with 0.07; and U14C U81A A94U, with 0.28.

On to U14C U62C G83A U130A, for which the self-cleavage worked out at 0.03. With U14C U20C A30U G75C the figure was 0. Then U15A U73C U91A U108C, with 0; and U15C G54A U62A, with 0. Regarding U14C U100C U119C, the self-cleavage came out at 1.84. Then U14C U47C G72A, with 1.55; and U14C U26C U45G G83U U85A, with 0. For U14C U20A G54A A65C U100C G126A U134C, the self-cleavage came out at 0.03. With U14C U91A U100C the figure was 1.02; with U15C A107G A142G, 2.04. As to U15A U29C A57G, the self-cleavage amounted to 0. Then U14G A50U U108C, with 1.44; and U14C U100C A124U, with 1.46. With U15A A22G A67U G122A U134C A140G the figure was 0.16; with U15C A31G U96C U132A, 0. With U15A U46C C56A A65G U115C the figure was 0.06; with U15C C71A U85C A117U, 0.1; with U14C U102C U143C C145U, 1.08. In the case of U14C U29A U91A, the self-cleavage came out at 0.27. With U15A A69G A78G U85C the figure was 0.77; with U15C A77U U85C, 0.04; with U15C A94G U104G, 0.5.

In the case of U14C U39C U81A A117C A138G, the self-cleavage was 2.92. Then U15C A121U A140G, with 2.17; and U15C G21U G72A U102C U119C, with 1.67. With U15C A77U A78G U112C U119C C133U the figure was 0.65; with U15A A42G U52G A67C C68U, 0.

Consider U15C A107U A121G G125U, for which the self-cleavage amounted to 1.67. With U15A U91C U143A the figure was 0.69; with U14C U39G U47C U134G, 0.66.

As for U14C U26C U52A A142G, the self-cleavage amounted to 1.48. With U14C U26A U96A the figure was 0.05; with U14C U62G A69G U96G, 0. Turning to U15C A43G A141G, the self-cleavage came to 2.09.

Regarding U15A A31U G97C A142G, the self-cleavage was 0.17. With U14C U26C A31C C84U A121U A124U A136G the figure was 0. Then U14C U47A A136C A141U, with 1.07; and U14C U45C A67U U87A U130C, with 0.49; and U15C A57G A140G, with 0.83. With U14C U29C A50G A138U the figure was 0.48; with U15A A24G U109C G135A, 1.08. For the variant U15C A77G U102C, the self-cleavage is 1.28. U14C U87C G139U: the self-cleavage stood at 0.11. Then U15C G58U A121G, with 0.06. Then U15A U47C C128U U134G, with 0.71. With U15A A59G U73C A140C the figure was 0. Turning to U15C G70A A117G A141U, the self-cleavage came to 0.13. Then U15C G32A U39A U87A U115A, with 0.05. With U15C C98G C116U the figure was 0.05; with U15C A64U A77U U100A C123U, 0.22; with U15C A42U A141G, 1.4. With U15A G44A A50G A59G the figure was 0.26; with U14C U45A U81A A117U A136G, 1.64. Consider U14C U45C A64G G105A, for which the self-cleavage worked out at 0.35.

U14C U52C A59U: the self-cleavage was 0.59.

Turning to U14C U62C U87C, the self-cleavage worked out at 0. Then U15C A124G A141G, with 1.89; and U15C A30U U109C A121C A142G, with 1.23; and U15C A22U U115C, with 0.94. Then U15C C95U U112C A117U, with 0.2; and U15A A30U A129C A140G, with 0.87; and U15C A107U C111U, with 1.53. With U15C A24U U52A A121G the figure was 1.4. Take U15A A22U U39C: the self-cleavage was determined as 1.1. Then U14G U29C A121U U132A, with 1.72; and U15C A30G U47A, with 0.8; and U15A U85C U104C, with 0.6. With U14C U85A U87A the figure was 0.13. In the case of U15A U47A A50G A67G U100C A141U, the self-cleavage was 0. With U14C U39C A77G U143C the figure was 1.41. Then U14C U26A U100G U143C, with 2.45. Then U15C A43G A65G C84U U102C A140G, with 0; and U14C U47A C133U A140G, with 0.38. In the case of U14C U96C U143C, the self-cleavage is 0.24.

With U15C A65U U85C U96A, the self-cleavage is 0. Consider U14C U87A U96C A140G, for which the self-cleavage is 0.07. Then U14C U29C U62C U73A, with 0.32; and U15A U52A U96C, with 0.16; and U15A G36A C71A, with 0.16. With U15A U39C A64U U87C the figure was 0. With U14G A30U A69G U73G U85A the figure was 0.46. With U14C U85C A140C, the self-cleavage came to 0.35. Then U14C U39C A65G A142G, with 0; and U14C U20C A42G A136G, with 0.84; and U15A A43G A107G U134C, with 1.41. With U15A A43G U104A A107C U108C C113U the figure was 0; with U14C U29C C76U U132C, 1.57. Then U15C A117U A129G, with 2.76; and U15C A31U U62A C98G C110U A121G U130C, with 0.04; and U14C G48A U102A U112C, with 1.47. U15C A50G U102A: the self-cleavage is 1.59. With U15C A57C G97A the figure was 0.03; with U15A G60U U102C, 0.04. Then U15C A59G U91A, with 0.09. Turning to U15C G55A G88A, the self-cleavage was determined as 0.04. With U14G A22G A50G A59G G75A U143A the figure was 0.24; with U15A A42G G48A U115C, 1.26; with U15A A65C U87A, 0.17. With U15C A30G U112C the figure was 1.86. Then U14G A22C G105U U119C, with 1.41; and U14C U39A U134C, with 1.54. As to U14C U15C G86A U104C, the self-cleavage was 0.15.

Consider U14C U45A A67U U132C, for which the self-cleavage was found to be 0.24.

In the case of U14C G53U C84U A117G, the self-cleavage worked out at 0.36.

On to U14C U15C U96A, for which the self-cleavage worked out at 0.11.

Take U14G A78G G93U: the self-cleavage was 0.11. Then U14C U29A A79U, with 0. Then U15C G75U U87C U130C, with 0.15; and U15C A78G A142G, with 1.01; and U15C A42G U62A, with 0.16. With U14C U85A A107G, the self-cleavage was found to be 0.04.

Consider U14C G105C C120A A136G, for which the self-cleavage was found to be 1.33. Then U15A A22U A77G A94G U108C, with 0; and U14G U73A U91C, with 0.21. With U15C A78G U96A A121G G127A the figure was 0.06; with U14C U26C U39C A79G, 0. Then U14C U46G A77U, with 1.09; and U15A U26C A141G, with 0.92.

On to U15A A22G U46C, for which the self-cleavage was found to be 0.38. With U15C A43G U47C A136G A140G the figure was 0; with U14C U39A A57G A67U A129U, 0.18.
